Measured values taken from the supplement of paper PMC8728848.
The list shows a part of the results.

Assays:
Assay in all cases: glycan array binding signal (z-score within array); higher = stronger binding
Conditions in all cases: glycan notation: IUPAC condensed, linker removed
Glc(b1-6)Glc = biological target: Glc(b1-6)Glc
How it was run: (§1)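 Glycan array data were curated from 3228 arrays in the Consortium for Functional Glycomics database and kept only where the protein sequence was available. Glycan names were converted to IUPAC-condensed notation, and columns mapping to the same glycan were averaged. The binding signal is a within-array Z-score, averaged across arrays of the same protein sequence at different concentrations or buffers and across linkers. Negative Z-scores can be read as non-binding.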

GlcA(b1-3)Gal = biological target: GlcA(b1-3)Gal
How it was run: as §1

GlcA(b1-3)GlcNAc = biological target: GlcA(b1-3)GlcNAc
How it was run: as §1

GlcA(b1-6)Gal = biological target: GlcA(b1-6)Gal
How it was run: as §1

[1] = biological target: GlcA3S(b1-3)Gal(b1-4)GlcNAc(b1-2)Man
How it was run: as §1

[2] = biological target: GlcA3S(b1-3)Gal(b1-4)GlcNAc(b1-3)Gal(b1-4)Glc
How it was run: as §1

[3] = biological target: GlcNAc(a1-3)Gal(b1-4)GlcNAc
How it was run: as §1

[4] = biological target: GlcNAc(a1-4)Gal(b1-3)GlcNAc
How it was run: as §1

[5] = biological target: GlcNAc(a1-4)Gal(b1-4)GalNAc
How it was run: as §1

[6] = biological target: GlcNAc(a1-4)Gal(b1-4)GlcNAc
How it was run: as §1

[7] = biological target: GlcNAc(a1-4)Gal(b1-4)GlcNAc(b1-3)Gal(b1-4)Glc
How it was run: as §1

[8] = biological target: GlcNAc(a1-4)Gal(b1-4)GlcNAc(b1-3)Gal(b1-4)GlcNAc
How it was run: as §1

[9] = biological target: GlcNAc(a1-4)Gal(b1-4)GlcNAc(b1-3)Gal(b1-4)GlcNAc(b1-3)Gal(b1-4)GlcNAc
How it was run: as §1

[10] = biological target: GlcNAc(a1-4)Gal(b1-4)GlcNAc(b1-3)Gal(b1-4)[Fuc(a1-3)]GlcNAc(b1-3)Gal(b1-4)[Fuc(a1-3)]GlcNAc
How it was run: as §1

[11] = biological target: GlcNAc(a1-6)Gal(b1-4)GlcNAc
How it was run: as §1

[12] = biological target: GlcNAc(b1-2)Gal(b1-3)GalNAc
How it was run: as §1

[13] = biological target: GlcNAc(b1-2)Man(a1-3)[GlcNAc(b1-2)Man(a1-6)]Man(b1-4)GlcNAc(b1-4)GlcNAc
How it was run: as §1

[14] = biological target: GlcNAc(b1-2)Man(a1-3)[GlcNAc(b1-2)Man(a1-6)]Man(b1-4)GlcNAc(b1-4)[Fuc(a1-6)]GlcNAc
How it was run: as §1

[15] = biological target: GlcNAc(b1-2)Man(a1-3)[GlcNAc(b1-4)][GlcNAc(b1-2)Man(a1-6)]Man(b1-4)GlcNAc(b1-4)GlcNAc
How it was run: as §1

[16] = biological target: GlcNAc(b1-2)Man(a1-3)[GlcNAc(b1-4)][GlcNAc(b1-2)Man(a1-6)]Man(b1-4)GlcNAc(b1-4)[Fuc(a1-6)]GlcNAc
How it was run: as §1

[17] = biological target: GlcNAc(b1-2)[GlcNAc(b1-4)]Man(a1-3)[GlcNAc(b1-2)Man(a1-6)]Man(b1-4)GlcNAc(b1-4)GlcNAc
How it was run: as §1

[18] = biological target: GlcNAc(b1-2)[GlcNAc(b1-4)]Man(a1-3)[GlcNAc(b1-4)][GlcNAc(b1-2)Man(a1-6)]Man(b1-4)GlcNAc(b1-4)GlcNAc
How it was run: as §1

[19] = biological target: GlcNAc(b1-2)[GlcNAc(b1-4)]Man(a1-3)[GlcNAc(b1-4)][GlcNAc(b1-2)[GlcNAc(b1-6)]Man(a1-6)]Man(b1-4)GlcNAc(b1-4)GlcNAc
How it was run: as §1

[20] = biological target: GlcNAc(b1-2)[GlcNAc(b1-4)]Man(a1-3)[GlcNAc(b1-4)][GlcNAc(b1-2)[GlcNAc(b1-6)]Man(a1-6)]Man(b1-4)GlcNAc(b1-4)[Fuc(a1-6)]GlcNAc
How it was run: as §1

[21] = biological target: GlcNAc(b1-2)[GlcNAc(b1-6)]Man(a1-6)[GlcNAc(b1-2)Man(a1-3)]Man(b1-4)GlcNAc(b1-4)GlcNAc
How it was run: as §1

[22] = biological target: GlcNAc(b1-2)[GlcNAc(b1-6)]Man(a1-6)[GlcNAc(b1-2)Man(a1-3)]Man(b1-4)GlcNAc(b1-4)[Fuc(a1-6)]GlcNAc
How it was run: as §1

[23] = biological target: GlcNAc(b1-2)[GlcNAc(b1-6)]Man(a1-6)[GlcNAc(b1-4)][GlcNAc(b1-2)Man(a1-3)]Man(b1-4)GlcNAc(b1-4)GlcNAc
How it was run: as §1

GlcNAc(b1-3)Fuc = biological target: GlcNAc(b1-3)Fuc
How it was run: as §1

GlcNAc(b1-3)Gal = biological target: GlcNAc(b1-3)Gal
How it was run: as §1

[24] = biological target: GlcNAc(b1-3)Gal(b1-3)GalNAc
How it was run: as §1

GlcNAc(b1-3)Gal(b1-4)Glc = biological target: GlcNAc(b1-3)Gal(b1-4)Glc
How it was run: as §1

[25] = biological target: GlcNAc(b1-3)Gal(b1-4)GlcNAc
How it was run: as §1

[26] = biological target: GlcNAc(b1-3)Gal(b1-4)GlcNAc(b1-2)Man(a1-3)[GlcNAc(b1-3)Gal(b1-4)GlcNAc(b1-2)Man(a1-6)]Man(b1-4)GlcNAc(b1-4)GlcNAc
How it was run: as §1

[27] = biological target: GlcNAc(b1-3)Gal(b1-4)GlcNAc(b1-2)Man(a1-3)[GlcNAc(b1-3)Gal(b1-4)GlcNAc(b1-2)Man(a1-6)]Man(b1-4)GlcNAc(b1-4)[Fuc(a1-6)]GlcNAc
How it was run: as §1

[28] = biological target: GlcNAc(b1-3)Gal(b1-4)GlcNAc(b1-2)[GlcNAc(b1-3)Gal(b1-4)GlcNAc(b1-6)]Man(a1-6)[GlcNAc(b1-3)Gal(b1-4)GlcNAc(b1-2)Man(a1-3)]Man(b1-4)GlcNAc(b1-4)GlcNAc
How it was run: as §1

[29] = biological target: GlcNAc(b1-3)Gal(b1-4)GlcNAc(b1-3)Gal(b1-4)GlcNAc
How it was run: as §1

[30] = biological target: GlcNAc(b1-3)Gal(b1-4)GlcNAc(b1-3)Gal(b1-4)GlcNAc(b1-2)Man(a1-3)[GlcNAc(b1-3)Gal(b1-4)GlcNAc(b1-3)Gal(b1-4)GlcNAc(b1-2)Man(a1-6)]Man(b1-4)GlcNAc(b1-4)GlcNAc
How it was run: as §1

B1: GS14009A-pdi-495-27-495 (Parabacteroides distasonis) (protein)
chain: FEEVNTDPDSPTDVPTTNLLAYSLYYTSYRLYDRWFAMDEPMTFCGYASKMTYIDESRYNFRTGVQDTNWEYLYRILNNLKDIEKRATFNETPNMLNVSKVMQVHLMQVATDRWRDVPYTDAAKMTDGILQPKYDKQEDIYPGLLATLKEAADGFADGGSDDLGEGDLLFGGDIEKWQRYCNSMRLRLAMRISEVSPALAKETVEEVMGNPTKYPIMESNDDNAFFWWIGTDPNYYEPMADGYRTRKTEYCAADVIVDHMNTREDPRRSSYFQPTKESVEAGEPKYVGYTIGAKANAVASKYSIWGARFFTDLAGFSPYMRVAEPWFCVAEASMLGWNTGISAEDAYNKAVTYSMEENSVSAEDIADYLANAGKFTNDKKQIYYEEWVAMFKQGMEGWSLYRRTGVPDNLYPAPGRPANYSNHNVPPFRSPYPDKERNLNNANCAPFDAEVVDNLWGKQMWWDTRTGVH
glycan array binding signal (z-score) (Glc(b1-6)Glc): -0.062
glycan array binding signal (z-score) (GlcA(b1-3)Gal): -0.042
glycan array binding signal (z-score) (GlcA(b1-3)GlcNAc): 0.076
glycan array binding signal (z-score) (GlcA(b1-6)Gal): 0.626
glycan array binding signal (z-score) [1]: 0.331
glycan array binding signal (z-score) [2]: 0.707
glycan array binding signal (z-score) [3]: -0.797
glycan array binding signal (z-score) [4]: -0.371
glycan array binding signal (z-score) [5]: 0.181
glycan array binding signal (z-score) [6]: -0.189
glycan array binding signal (z-score) [7]: -0.147
glycan array binding signal (z-score) [8]: 0.016
glycan array binding signal (z-score) [9]: -0.148
glycan array binding signal (z-score) [10]: 1.93
glycan array binding signal (z-score) [11]: -0.461
glycan array binding signal (z-score) [12]: -0.89
glycan array binding signal (z-score) [13]: -0.732
glycan array binding signal (z-score) [14]: 0.939
glycan array binding signal (z-score) [15]: 0.44
glycan array binding signal (z-score) [16]: -0.13
glycan array binding signal (z-score) [17]: -0.685
glycan array binding signal (z-score) [18]: -0.539
glycan array binding signal (z-score) [19]: -0.055
glycan array binding signal (z-score) [20]: -0.242
glycan array binding signal (z-score) [21]: 0.212
glycan array binding signal (z-score) [22]: -0.199
glycan array binding signal (z-score) [23]: -0.287
glycan array binding signal (z-score) (GlcNAc(b1-3)Fuc): -0.021
glycan array binding signal (z-score) (GlcNAc(b1-3)Gal): -0.71
glycan array binding signal (z-score) [24]: 0.127
glycan array binding signal (z-score) (GlcNAc(b1-3)Gal(b1-4)Glc): -0.222
glycan array binding signal (z-score) [25]: -0.094
glycan array binding signal (z-score) [26]: 0.166
glycan array binding signal (z-score) [27]: 0.393
glycan array binding signal (z-score) [28]: 0.313
glycan array binding signal (z-score) [29]: -0.252
glycan array binding signal (z-score) [30]: 0.834
